# Experimental data reported in the supplement of paper PMC8728848.
# The list shows a part of the results.
# B1: NanI (Corynebacterium diphtheriae), C6JSW7 (protein)
# chain: MTNTLESNPMTTTTGALTITFATTCDGPLAHIPHHLDLNIIHGRIQGTTAHRRIDAEDPDGLDDGLPHHLCLSVDTTGTHLFIDGYEAFSTTQTEWFDTSELTLNPHGDLTIIDHQILNHAPTPRQARNLAPAAEPLVWFAGSHLSTRDTQRISHLTHGSLRLLMKTRGTGQGGVAFQAHTINGDLTLEIIDGTLIFSVRCHDEDYVRITAPGRWDDGQIYDVVIVCGRGATDIYVDGQQLIHSPGAAFFNDLSGELSVHIGTAASGVRLFGEVQSGMIYPHVFNHHQVQRLATVEPIATQALFDCLLDGAQSYRIPSLITTDSGVIIAGADKRVSIANDAPNDIDFVLRRSVDGGRTWQPPRTILQLPDTACVTDSVLLQDHTTGRIFAFLDQFPAGIGQPNAAFGTGFDADGNRIGHFADGSTCTMPREVDQLEASFFSDPHTAPPGIVFQHPSCHLWMLTSDDDGLTWSTPRDLTPDVKEEWMRFCGTSPGNGIQLQRDTHAGRLLIPMYYTKGDQFFAAALYSDDHGDTWHRGESPDLEMYESTLVEASDGSVLLWARNQHPSGAVAHARSTDGGHSWSQVTFNPNVPEIFSQPNALRVTNPDGIIFANASQLLPFRGRGVLRMSTNDGASWQHNRVFNPRHYVYQCMTQLPDGSIGLLWEREMQGLFFSIIPMTWIMQGYAL
# Legend:
# Assay in all cases: glycan array binding signal (z-score within array); higher = stronger binding
# Conditions in all cases: glycan notation: IUPAC condensed, linker removed
# [1] = target: Fuc(a1-2)Gal(b1-4)[Fuc(a1-3)]GlcNAc
# Summary of the method: (§1)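 Arrays were curated from the Consortium for Functional Glycomics database, 3228 in total, and kept only where the protein sequence was available. Binding is expressed as a within-array Z-score. This score was averaged across arrays of the same protein sequence at different concentrations or buffers and across linkers, and negative values can be read as non-binding.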
# [2] = target: Fuc(a1-2)Gal(b1-4)[Fuc(a1-3)]GlcNAc(b1-2)Man(a1-3)[Fuc(a1-2)Gal(b1-4)[Fuc(a1-3)]GlcNAc(b1-2)Man(a1-6)]Man(b1-4)GlcNAc(b1-4)GlcNAc
# Summary of the method: as §1
# [3] = target: Fuc(a1-2)Gal(b1-4)[Fuc(a1-3)]GlcNAc(b1-2)[Fuc(a1-2)Gal(b1-4)[Fuc(a1-3)]GlcNAc(b1-4)]Man(a1-3)[Fuc(a1-2)Gal(b1-4)[Fuc(a1-3)]GlcNAc(b1-2)Man(a1-6)]Man(b1-4)GlcNAc(b1-4)GlcNAc
# Summary of the method: as §1
# [4] = target: Fuc(a1-2)Gal(b1-4)[Fuc(a1-3)]GlcNAc(b1-3)Gal(b1-4)[Fuc(a1-3)]GlcNAc
# Summary of the method: as §1
# [5] = target: Fuc(a1-2)Gal(b1-4)[Fuc(a1-3)]GlcNAc(b1-3)Gal(b1-4)[Fuc(a1-3)]GlcNAc(b1-3)Gal(b1-4)[Fuc(a1-3)]GlcNAc
# Summary of the method: as §1
# [6] = target: Fuc(a1-2)Gal(b1-4)[Fuc(a1-3)]GlcNAc(b1-3)GalNAc
# Summary of the method: as §1
# Fuc(a1-2)Gal6S(b1-4)Glc = target: Fuc(a1-2)Gal6S(b1-4)Glc
# Summary of the method: as §1
# [7] = target: Fuc(a1-2)Gal6S(b1-4)Glc6S
# Summary of the method: as §1
# [8] = target: Fuc(a1-2)Gal6S(b1-4)GlcNAc
# Summary of the method: as §1
# Fuc(a1-2)[Gal(a1-3)]Gal = target: Fuc(a1-2)[Gal(a1-3)]Gal
# Summary of the method: as §1
# [9] = target: Fuc(a1-2)[Gal(a1-3)]Gal(b1-3)GalNAc
# Summary of the method: as §1
# [10] = target: Fuc(a1-2)[Gal(a1-3)]Gal(b1-3)GlcNAc
# Summary of the method: as §1
# [11] = target: Fuc(a1-2)[Gal(a1-3)]Gal(b1-3)GlcNAc(b1-2)Man(a1-3)[Fuc(a1-2)[Gal(a1-3)]Gal(b1-3)GlcNAc(b1-2)Man(a1-6)]Man(b1-4)GlcNAc(b1-4)GlcNAc
# Summary of the method: as §1
# [12] = target: Fuc(a1-2)[Gal(a1-3)]Gal(b1-3)GlcNAc(b1-2)Man(a1-3)[Fuc(a1-2)[Gal(a1-3)]Gal(b1-3)GlcNAc(b1-2)Man(a1-6)]Man(b1-4)GlcNAc(b1-4)[Fuc(a1-6)]GlcNAc
# Summary of the method: as §1
# [13] = target: Fuc(a1-2)[Gal(a1-3)]Gal(b1-3)GlcNAc(b1-3)GalNAc
# Summary of the method: as §1
# [14] = target: Fuc(a1-2)[Gal(a1-3)]Gal(b1-4)Glc
# Summary of the method: as §1
# [15] = target: Fuc(a1-2)[Gal(a1-3)]Gal(b1-4)GlcNAc
# Summary of the method: as §1
# [16] = target: Fuc(a1-2)[Gal(a1-3)]Gal(b1-4)GlcNAc(b1-2)Man(a1-3)[Fuc(a1-2)[Gal(a1-3)]Gal(b1-4)GlcNAc(b1-2)Man(a1-6)]Man(b1-4)GlcNAc(b1-4)GlcNAc
# Summary of the method: as §1
# [17] = target: Fuc(a1-2)[Gal(a1-3)]Gal(b1-4)GlcNAc(b1-2)Man(a1-3)[Fuc(a1-2)[Gal(a1-3)]Gal(b1-4)GlcNAc(b1-2)Man(a1-6)]Man(b1-4)GlcNAc(b1-4)[Fuc(a1-6)]GlcNAc
# Summary of the method: as §1
# [18] = target: Fuc(a1-2)[Gal(a1-3)]Gal(b1-4)GlcNAc(b1-3)GalNAc
# Summary of the method: as §1
# [19] = target: Fuc(a1-2)[Gal(a1-3)]Gal(b1-4)[Fuc(a1-3)]Glc
# Summary of the method: as §1
# [20] = target: Fuc(a1-2)[Gal(a1-3)]Gal(b1-4)[Fuc(a1-3)]GlcNAc
# Summary of the method: as §1
# [21] = target: Fuc(a1-2)[Gal(a1-3)]Gal(b1-4)[Fuc(a1-3)]GlcNAc(b1-3)GalNAc
# Summary of the method: as §1
# [22] = target: Fuc(a1-2)[Gal(a1-4)]Gal(b1-4)GlcNAc
# Summary of the method: as §1
# [23] = target: Fuc(a1-2)[GalNAc(a1-3)]Gal
# Summary of the method: as §1
# [24] = target: Fuc(a1-2)[GalNAc(a1-3)]Gal(b1-3)GalNAc(a1-3)[Fuc(a1-2)]Gal(b1-4)GlcNAc
# Summary of the method: as §1
# [25] = target: Fuc(a1-2)[GalNAc(a1-3)]Gal(b1-3)GlcNAc
# Summary of the method: as §1
# [26] = target: Fuc(a1-2)[GalNAc(a1-3)]Gal(b1-3)GlcNAc(b1-2)Man(a1-3)[Fuc(a1-2)[GalNAc(a1-3)]Gal(b1-3)GlcNAc(b1-2)Man(a1-6)]Man(b1-4)GlcNAc(b1-4)GlcNAc
# Summary of the method: as §1
# [27] = target: Fuc(a1-2)[GalNAc(a1-3)]Gal(b1-3)GlcNAc(b1-2)Man(a1-3)[Fuc(a1-2)[GalNAc(a1-3)]Gal(b1-3)GlcNAc(b1-2)Man(a1-6)]Man(b1-4)GlcNAc(b1-4)[Fuc(a1-6)]GlcNAc
# Summary of the method: as §1
# [28] = target: Fuc(a1-2)[GalNAc(a1-3)]Gal(b1-3)GlcNAc(b1-3)GalNAc
# Summary of the method: as §1
binder,measurement,setting,value
B1,glycan array binding signal (z-score),[1],-0.061
same,glycan array binding signal (z-score),[2],2.78
same,glycan array binding signal (z-score),[3],1.05
same,glycan array binding signal (z-score),[4],-0.866
same,glycan array binding signal (z-score),[5],-0.733
same,glycan array binding signal (z-score),[6],6.81
same,glycan array binding signal (z-score),Fuc(a1-2)Gal6S(b1-4)Glc,-0.1
same,glycan array binding signal (z-score),[7],0.16
same,glycan array binding signal (z-score),[8],-0.181
same,glycan array binding signal (z-score),Fuc(a1-2)[Gal(a1-3)]Gal,-0.5
same,glycan array binding signal (z-score),[9],0.789
same,glycan array binding signal (z-score),[10],-0.005
same,glycan array binding signal (z-score),[11],-0.114
same,glycan array binding signal (z-score),[12],0.442
same,glycan array binding signal (z-score),[13],-0.578
same,glycan array binding signal (z-score),[14],0.33
same,glycan array binding signal (z-score),[15],-0.375
same,glycan array binding signal (z-score),[16],0.037
same,glycan array binding signal (z-score),[17],-0.392
same,glycan array binding signal (z-score),[18],0.582
same,glycan array binding signal (z-score),[19],0.454
same,glycan array binding signal (z-score),[20],1.59
same,glycan array binding signal (z-score),[21],2.08
same,glycan array binding signal (z-score),[22],-1.32
same,glycan array binding signal (z-score),[23],-0.206
same,glycan array binding signal (z-score),[24],-0.136
same,glycan array binding signal (z-score),[25],0.087
same,glycan array binding signal (z-score),[26],-0.557
same,glycan array binding signal (z-score),[27],1.1
same,glycan array binding signal (z-score),[28],2.04
